Source: patent US10299477B2 (priority 2015, dated 2019)

What was measured:
Format in all cases: in vivo
Alternaia brassicicola = assay: Test Example C: Alternaria sooty spot on cabbage; settings: for Test C (control value class, Alternaria sooty spot on cabbage): in vivo; for Test C control value (Alternaria sooty spot on cabbage): preventive, control value class
Text: [Test Example C] Alternaria Sooty Spot on Cabbage
Seeds of a test plant (cabbage variety: Shikidori) were planted followed by cultivating until the cotyledons extended.

Plasmopara viticola = assay: Test Example G: Downy mildew on vine; settings: for Test G (control value class): 250 ppm spray; for Test G (control value class, downy mildew on vine): 250 ppm, sprayed 2.5 ml/pot before inoculation; for Test G control value (downy mildew on vine): 250 ppm spray (2.5 ml/pot), preventive, control value class
Text: [Test Example G] Downy Mildew on Vine
Seeds of a test plant (grape variety: Neomuscat) were planted followed by cultivating until three to four first leaves appeared. […] After the sprayed dilutions were dried, a zoosporangia suspension (1-2×10^4 zoosporangia/ml) of Plasmopara viticola was inoculated to the plants by spraying.

Puccinia recondita = assay: Test Example E: Brown rust on wheat; settings: for Test E (control value class, brown rust on wheat): in vivo; for Test E control value (brown rust on wheat): preventive, control value class
Text: [Test Example E] Brown Rust on Wheat

[1] = system: Blumeria graminis f sp. hordei; assay: Test Example D: Powdery mildew on barley; settings: for Test D (control value class, powdery mildew on barley): in vivo; for Test D control value (powdery mildew on barley): preventive, control value class
Text: [Test Example D] Powdery Mildew on Barley
After the sprayed dilutions were dried, conidia of Blumeria graminis f sp. hordei were inoculated to the plants by shaking off.

Botrytis cinerea = assay: Test Example B: Gray mold on tomato; settings: for Test B (control value class, gray mold on tomato): in vivo; for Test B control value (gray mold on tomato): preventive, control value class
Text: [Test Example B] Gray Mold on Tomato
Seeds of a test plant (tomato variety: Oogata Fukuju) were planted followed by cultivating until three to five first leaves (true leaves) appeared.

[2] = Alternaria sooty spot on cabbage, 250 ppm spray
[3] = downy mildew on vine, Plasmopara viticola, 7-10 days after inoculation
[4] = brown rust on wheat, Puccinia recondita, 250 ppm spray
[5] = powdery mildew on barley, 250 ppm spray
[6] = gray mold on tomato, Botrytis cinerea, 250 ppm spray
[7] = evaluated 7-10 days after inoculation
[8] = Alternaria sooty spot on cabbage, control value=100{1-(n/3)}
[9] = Downy mildew on vine, 2.5 ml/pot, evaluated 7-10 days after inoculation
[10] = Brown rust on wheat, control value=100{1-(n/3)}
[11] = Powdery mildew on barley, control value=100{1-(n/3)}
[12] = Gray mold on tomato, control value=100{1-(n/3)}

## COc1cc(OC)c(Cl)c(-c2ccc(=O)n(/C=C\F)c2-c2c(F)cc(F)cc2F)c1 [Compound 380]
Alternaia brassicicola; [2]
  Test C (control value class): H (H shows more than 50% of control values)
Plasmopara viticola; [3]
  Test G (control value class): H (H shows more than 50% of control values)
Puccinia recondita; [4]
  Test E (control value class): H (H shows more than 50% of control values)
[1]; [5]
  Test D (control value class): H (H shows more than 50% of control values)
Botrytis cinerea; [6]
  Test B (control value class): H (H shows more than 50% of control values)

## CN1C(=O)CCC(c2ccccc2F)=C1c1c(F)cc(F)cc1F [Compound 526]
Alternaia brassicicola; [2]
  Test C (control value class): H (H shows more than 50% of control values)
Plasmopara viticola; [3]
  Test G (control value class): H (H shows more than 50% of control values)
Puccinia recondita; [4]
  Test E (control value class): L (L shows 50% or less of control values)
[1]; [5]
  Test D (control value class): H (H shows more than 50% of control values)
Botrytis cinerea; [6]
  Test B (control value class): H (H shows more than 50% of control values)

## COc1cc(F)c(-c2c(-c3ccccc3Cl)cc(Br)c(=O)n2C)c(F)c1 [Compound 732]
Alternaia brassicicola
  Test C (control value class, Alternaria sooty spot on cabbage): H (H shows more than 50% of control values)
Plasmopara viticola; [7]
  Test G (control value class, downy mildew on vine): L (L shows 50% or less of control values)
Puccinia recondita
  Test E (control value class, brown rust on wheat): H (H shows more than 50% of control values)
[1]
  Test D (control value class, powdery mildew on barley): L (L shows 50% or less of control values)
Botrytis cinerea
  Test B (control value class, gray mold on tomato): H (H shows more than 50% of control values)

## CCn1c(-c2c(F)cccc2F)c(-c2cc(F)cc(F)c2F)cc(C)c1=O [Compound 459]
Alternaia brassicicola; [2]
  Test C (control value class): H (H shows more than 50% of control values)
Plasmopara viticola; [3]
  Test G (control value class): L (L shows 50% or less of control values)
Puccinia recondita; [4]
  Test E (control value class): H (H shows more than 50% of control values)
[1]; [5]
  Test D (control value class): H (H shows more than 50% of control values)
Botrytis cinerea; [6]
  Test B (control value class): H (H shows more than 50% of control values)

## CCn1c(-c2c(F)cccc2F)c(-c2cccc(OC(F)(F)F)c2)cc(Cl)c1=O [Compound 218]
Alternaia brassicicola; 250 ppm spray
  Test C control value (Alternaria sooty spot on cabbage): H (H shows more than 50% of control values)
Plasmopara viticola; 7-10 days after inoculation
  Test G control value (downy mildew on vine): L (L shows 50% or less of control values)
Puccinia recondita; 250 ppm spray
  Test E control value (brown rust on wheat): H (H shows more than 50% of control values)
[1]; 250 ppm spray
  Test D control value (powdery mildew on barley): H (H shows more than 50% of control values)
Botrytis cinerea; 250 ppm spray
  Test B control value (gray mold on tomato): L (L shows 50% or less of control values)

## COc1ccc(Cl)c(-c2ccc(=O)n(C)c2-c2c(F)cc(F)cc2F)c1 [Compound 415]
Alternaia brassicicola; [2]
  Test C (control value class): H (H shows more than 50% of control values)
Plasmopara viticola; [3]
  Test G (control value class): L (L shows 50% or less of control values)
Puccinia recondita; [4]
  Test E (control value class): H (H shows more than 50% of control values)
[1]; [5]
  Test D (control value class): H (H shows more than 50% of control values)
Botrytis cinerea; [6]
  Test B (control value class): H (H shows more than 50% of control values)

## CCn1c(-c2c(F)cccc2F)c(-c2c(F)cccc2Cl)ccc1=O [Compound 385]
Alternaia brassicicola; [2]
  Test C (control value class): H (H shows more than 50% of control values)
Plasmopara viticola; [3]
  Test G (control value class): H (H shows more than 50% of control values)
Puccinia recondita; [4]
  Test E (control value class): H (H shows more than 50% of control values)
[1]; [5]
  Test D (control value class): H (H shows more than 50% of control values)
Botrytis cinerea; [6]
  Test B (control value class): H (H shows more than 50% of control values)

## CCn1c(-c2c(F)cc(OC)cc2F)c(-c2cc(F)cc(F)c2)cc(Br)c1=O [Compound 799]
Alternaia brassicicola; [8]
  Test C (control value class): H (H shows more than 50% of control values)
Plasmopara viticola; [9]
  Test G (control value class): H (H shows more than 50% of control values)
Puccinia recondita; [10]
  Test E (control value class): H (H shows more than 50% of control values)
[1]; [11]
  Test D (control value class): H (H shows more than 50% of control values)
Botrytis cinerea; [12]
  Test B (control value class): H (H shows more than 50% of control values)

## COc1cc(F)c(-c2c(-c3ccccc3Cl)cc(Cl)c(=O)n2C)c(F)c1 [Compound 435]
Alternaia brassicicola; [2]
  Test C (control value class): H (H shows more than 50% of control values)
Plasmopara viticola; [3]
  Test G (control value class): H (H shows more than 50% of control values)
Puccinia recondita; [4]
  Test E (control value class): H (H shows more than 50% of control values)
[1]; [5]
  Test D (control value class): H (H shows more than 50% of control values)
Botrytis cinerea; [6]
  Test B (control value class): H (H shows more than 50% of control values)

## COc1ccc(Cl)c(C2=C(c3c(F)cccc3F)N(C#N)C(=O)CC2)c1 [Compound 704]
Alternaia brassicicola
  Test C (control value class, Alternaria sooty spot on cabbage): L (L shows 50% or less of control values)
Plasmopara viticola; [7]
  Test G (control value class, downy mildew on vine): H (H shows more than 50% of control values)
Puccinia recondita
  Test E (control value class, brown rust on wheat): L (L shows 50% or less of control values)
[1]
  Test D (control value class, powdery mildew on barley): L (L shows 50% or less of control values)
Botrytis cinerea
  Test B (control value class, gray mold on tomato): L (L shows 50% or less of control values)

## COc1cc(F)c(-c2c(-c3ccc(F)cc3Cl)cc(Cl)c(=O)n2C)c(F)c1 [Compound 600]
Alternaia brassicicola
  Test C (control value class, Alternaria sooty spot on cabbage): H (H shows more than 50% of control values)
Plasmopara viticola; [7]
  Test G (control value class, downy mildew on vine): H (H shows more than 50% of control values)
Puccinia recondita
  Test E (control value class, brown rust on wheat): H (H shows more than 50% of control values)
[1]
  Test D (control value class, powdery mildew on barley): H (H shows more than 50% of control values)
Botrytis cinerea
  Test B (control value class, gray mold on tomato): H (H shows more than 50% of control values)

## Cn1c(-c2c(F)cccc2F)c(-c2ccc(Cl)cc2)ccc1=O [Compound 280]
Alternaia brassicicola; 250 ppm spray
  Test C control value (Alternaria sooty spot on cabbage): H (H shows more than 50% of control values)
Plasmopara viticola; 7-10 days after inoculation
  Test G control value (downy mildew on vine): H (H shows more than 50% of control values)
Puccinia recondita; 250 ppm spray
  Test E control value (brown rust on wheat): H (H shows more than 50% of control values)
[1]; 250 ppm spray
  Test D control value (powdery mildew on barley): H (H shows more than 50% of control values)
Botrytis cinerea; 250 ppm spray
  Test B control value (gray mold on tomato): H (H shows more than 50% of control values)

## Cn1c(-c2c(F)cccc2F)c(-c2ccccc2F)cc(Br)c1=O [Compound 145]
Alternaia brassicicola; Alternaria sooty spot on cabbage
  Test C control value: H (H shows more than 50% of control values)
Plasmopara viticola; Downy mildew on vine, 250 ppm sprayed before inoculation, 7-10 days after inoculation
  Test G control value: H (H shows more than 50% of control values)
Puccinia recondita; Brown rust on wheat
  Test E control value: H (H shows more than 50% of control values)
[1]; Powdery mildew on barley
  Test D control value: H (H shows more than 50% of control values)
Botrytis cinerea; Gray mold on tomato
  Test B control value: H (H shows more than 50% of control values)

## CCn1c(-c2c(F)cc(F)cc2F)c(-c2ccccc2Cl)cc(Cl)c1=O [Compound 421]
Alternaia brassicicola; [2]
  Test C (control value class): H (H shows more than 50% of control values)
Plasmopara viticola; [3]
  Test G (control value class): L (L shows 50% or less of control values)
Puccinia recondita; [4]
  Test E (control value class): H (H shows more than 50% of control values)
[1]; [5]
  Test D (control value class): H (H shows more than 50% of control values)
Botrytis cinerea; [6]
  Test B (control value class): H (H shows more than 50% of control values)

## Cn1c(-c2c(F)cc(F)cc2F)c(-c2cc(F)cc(F)c2)ccc1=O [Compound 800]
Alternaia brassicicola; [8]
  Test C (control value class): H (H shows more than 50% of control values)
Plasmopara viticola; [9]
  Test G (control value class): H (H shows more than 50% of control values)
Puccinia recondita; [10]
  Test E (control value class): H (H shows more than 50% of control values)
[1]; [11]
  Test D (control value class): H (H shows more than 50% of control values)
Botrytis cinerea; [12]
  Test B (control value class): H (H shows more than 50% of control values)

## CCOc1ccc(Cl)c(-c2ccc(=O)n(C)c2-c2c(F)cccc2F)c1 [Compound 237]
Alternaia brassicicola; 250 ppm spray
  Test C control value (Alternaria sooty spot on cabbage): L (L shows 50% or less of control values)
Plasmopara viticola; 7-10 days after inoculation
  Test G control value (downy mildew on vine): L (L shows 50% or less of control values)
Puccinia recondita; 250 ppm spray
  Test E control value (brown rust on wheat): H (H shows more than 50% of control values)
[1]; 250 ppm spray
  Test D control value (powdery mildew on barley): H (H shows more than 50% of control values)
Botrytis cinerea; 250 ppm spray
  Test B control value (gray mold on tomato): H (H shows more than 50% of control values)

## CCn1c(-c2c(F)cc(F)cc2F)c(-c2cc(OC)ccc2Cl)cc(Cl)c1=O [Compound 404]
Alternaia brassicicola; [2]
  Test C (control value class): H (H shows more than 50% of control values)
Plasmopara viticola; [3]
  Test G (control value class): H (H shows more than 50% of control values)
Puccinia recondita; [4]
  Test E (control value class): H (H shows more than 50% of control values)
[1]; [5]
  Test D (control value class): H (H shows more than 50% of control values)
Botrytis cinerea; [6]
  Test B (control value class): H (H shows more than 50% of control values)
